Test results reported in article PMC4336329 (PLoS ONE, 2015).
Hit rate of the full screen: of about 310,000 compounds, about 14,000 (4.5%) showed an effect of 50% or more. The effect is printed as a negative number. Some of the results follow.

target: human ether-à-go-go-related gene (hERG) potassium channel (human, UniProt Q12809); test: primary screen, population patch clamp on CHO cells stably expressing hERG
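Note: peak tail current of the secondary pulse compared with the same well before compound.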

Sequence of human ether-à-go-go-related gene (hERG) potassium channel (Q12809 whole entry, looked up): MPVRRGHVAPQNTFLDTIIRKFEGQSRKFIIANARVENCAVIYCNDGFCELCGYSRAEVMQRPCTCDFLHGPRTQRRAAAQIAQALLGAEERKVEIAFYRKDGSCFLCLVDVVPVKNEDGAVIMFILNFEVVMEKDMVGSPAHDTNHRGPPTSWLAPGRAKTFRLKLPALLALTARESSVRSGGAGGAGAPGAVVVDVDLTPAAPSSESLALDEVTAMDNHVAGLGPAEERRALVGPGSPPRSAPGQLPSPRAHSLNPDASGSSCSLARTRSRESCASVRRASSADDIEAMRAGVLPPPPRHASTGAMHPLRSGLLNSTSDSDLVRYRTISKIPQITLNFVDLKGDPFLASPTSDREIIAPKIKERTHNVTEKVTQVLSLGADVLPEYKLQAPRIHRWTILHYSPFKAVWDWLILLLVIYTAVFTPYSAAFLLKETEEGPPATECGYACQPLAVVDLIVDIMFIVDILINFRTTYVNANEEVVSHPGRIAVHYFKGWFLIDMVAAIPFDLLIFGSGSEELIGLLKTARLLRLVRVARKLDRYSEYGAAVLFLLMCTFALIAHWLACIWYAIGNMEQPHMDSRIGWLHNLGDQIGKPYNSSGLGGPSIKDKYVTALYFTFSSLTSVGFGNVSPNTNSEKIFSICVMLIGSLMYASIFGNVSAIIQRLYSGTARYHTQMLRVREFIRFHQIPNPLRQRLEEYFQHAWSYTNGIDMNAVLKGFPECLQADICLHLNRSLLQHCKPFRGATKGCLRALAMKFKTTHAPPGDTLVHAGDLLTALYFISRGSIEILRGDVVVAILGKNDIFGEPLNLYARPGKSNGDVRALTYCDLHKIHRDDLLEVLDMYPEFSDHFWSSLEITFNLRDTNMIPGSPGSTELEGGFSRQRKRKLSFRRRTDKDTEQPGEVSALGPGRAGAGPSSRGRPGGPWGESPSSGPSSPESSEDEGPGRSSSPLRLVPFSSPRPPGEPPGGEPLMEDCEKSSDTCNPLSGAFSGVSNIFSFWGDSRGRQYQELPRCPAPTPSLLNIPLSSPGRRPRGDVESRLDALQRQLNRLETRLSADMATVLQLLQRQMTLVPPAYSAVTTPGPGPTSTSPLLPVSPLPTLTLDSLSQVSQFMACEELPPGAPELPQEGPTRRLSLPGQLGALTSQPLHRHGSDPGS

Row | Structure (SMILES) | hERG current change (%, negative = inhibition) at 10uM
1 | O=C(OCN1C(=O)c2ccccc2C1=O)/C(=C\c1ccco1)NC(=O)c1ccccc1 | -16.5%
2 | Cc1c(Cl)c(C(F)(F)F)nn1CC(=O)NN | 2.79%
3 | CN1CCN(c2ccccc2NC(=O)c2ccc3c(c2)OCCO3)CC1 | -3.67%
4 | CC(C(=O)O)c1n[nH]c(=O)c2ccccc12 (stereo not drawn) | 2.79%
5 | O=c1oc2ccccc2c(O)c1/C=N/c1ncccn1 | 0.537%
6 | Cc1ccc(S(=O)(=O)CCC(=O)OCC(=O)N(C)C2CCS(=O)(=O)C2)cc1 (stereo not drawn) | 16.7%
7 | Cc1ccc(OCc2nc(-c3ccc(Cl)cc3)n[nH]2)cc1.Cl | -14.3%
8 | O=c1[nH]c2ccccc2nc1C(F)(F)C(F)F | 0.228%
9 | CCN(CC)CCNC(=O)C(=O)NCC1OCCN1S(=O)(=O)c1ccc([N+](=O)[O-])cc1 (stereo not drawn) | -9.32%
10 | Cl.NCCc1c[nH]c2ccc(O)cc12 | 6.86%
11 | Cc1ccc(NC(=O)CCn2c(=O)[nH]c3ccsc3c2=O)cc1C | 16.6%
12 | Cc1ccc(N2CCN(CC(O)COc3ccc([N+](=O)[O-])cc3)CC2)cc1 (stereo not drawn) | -76.4%
13 | CCN(c1ccccc1)S(=O)(=O)c1ccc(Cl)c(C(=O)N(CC2CCCO2)C2CCS(=O)(=O)C2)c1 (stereo not drawn) | -5.04%
14 | NC(=O)CS(=O)(=O)c1nc2ccccc2n1Cc1ccccc1F | 11.6%
15 | CN1C(=O)[C@H]2[C@@H](C3CC3)N3C(=O)CN(Cc4ccccn4)C(=O)[C@@]3(Cc3ccccc3)[C@H]2C1=O | -0.814%
16 | NC(=O)CC(NC(=O)c1cccc(Br)c1)c1ccc(NC2CCCCCCC2)c([N+](=O)[O-])c1 (stereo not drawn) | 6.95%
17 | O=C(c1ccc(F)cc1)N1CCC(C(=O)N2CCN(S(=O)(=O)c3cccc(F)c3)CC2)CC1 | -11.6%
18 | CCCCn1c(N)c(N(CCOC)C(=O)c2oc3ccc(OC)cc3c2C)c(=O)[nH]c1=O | 9.82%
19 | COc1cc(C(=O)COC(=O)c2cnc(C)cn2)ccc1OC(F)F | 17%

Row | Structure (SMILES) | hERG current change (%, negative = inhibition) at 10uM
20 | Cc1ccc(NC(=O)CN(C)Cc2cccs2)cc1Cl | -5.93%
21 | Cc1nn(Cc2ccccc2Cl)c(C)c1C(=O)Nc1nnc(C2CC2)s1 | -12%
22 | CC(=O)N=c1cccc(NC(C)=O)n1O | 1.57%
23 | O=C(O)CC(=O)NC12CC3CC(CC(C3)C1)C2 | 6.41%
24 | CC1(C)CC(=O)c2sc(NC(=O)c3cccs3)nc2C1 | 1.36%
25 | COc1cc(/C=N/NC(=O)c2cccnc2)ccc1OC(=O)c1cccc(Br)c1 | 5.79%
26 | CCCCN1C(=O)CC(C(=O)O)C1c1ccc(OC)cc1 (stereo not drawn) | -3.09%
27 | COC(=O)c1ccc(C)c(-n2c(=O)n(Cc3ccccc3)c(=O)c3[nH]cnc32)c1 | 0.882%
28 | C#CCOc1ccc(Cl)cc1/C=C1/C(=O)ON=C1C | 12.6%
29 | NS(=O)(=O)c1ccc(NC(=S)NCc2ccc(F)cc2)cc1 | -16.3%
30 | Cc1nnc(SCC(=O)NNC(=O)c2ccc(Cl)cc2)s1 | 25.6%
31 | CCCN(CCO)Cc1cccc(Oc2ccccc2)c1 | -19.2%
32 | COc1ccccc1-c1c(C)nn2c(C)c(C(C)=O)cnc12 | -1.84%
33 | C=CCn1c(COc2ccc(Cl)cc2)nnc1SCc1ccc(C#N)cc1 | -69.8%
34 | CCOC(=O)COc1nc2ccc(Br)cc2c(-c2ccccc2)c1C(C)=O | 12.1%
35 | Cc1ccc2sc(C)[n+](CCO)c2c1.[I-] | 18.8%
36 | CC(C)CCNC(=O)C1CCC(CNc2c(N3CCC(C)CC3)c(=O)c2=O)CC1 (stereo not drawn) | 11.3%
37 | O=S(=O)(Cc1ccccc1)Nc1ccc(S(=O)(=O)N2CCCC2)cc1 | 5.25%
38 | O=C(c1cc2ccccc2c(=O)o1)N1CCCCCC1 | -10.8%

Row | Structure (SMILES) | hERG current change (%, negative = inhibition) at 10uM
39 | Cl.Fc1ccccc1COc1ccc(Br)cc1CNCc1ccncc1 | -70.2%
40 | O=C(CCC1CCCC1)Nc1cccn(Cc2ccccc2Br)c1=O | -14.5%
41 | Cn1ccnc1SCc1cccc([N+](=O)[O-])c1 | -39.6%
42 | CCc1nnc(NC(=O)CSc2sc3c(O)cc(=O)[nH]c3c2C#N)s1 | -2.53%
43 | CC(Oc1ccc(Br)cc1)C(=O)O/N=C(\N)c1ccncc1 (stereo not drawn) | 5.16%
44 | CCCCn1c(=O)nc2n(-c3ccc(Cl)cc3)c3ccccc3cc-2c1=O | 6.05%
45 | CCOc1cccc(-c2nn3c(-c4ccccn4)nnc3s2)c1 | 6.33%
46 | COc1cc(OC)cc(C(=O)NCCSCc2ccc(Cl)cc2)c1 | -13.1%
47 | CCN1CCN(CCNC(=O)c2ccc3c(c2)N(Cc2ccc(F)cc2)C(=O)c2ccccc2S3=O)CC1 (stereo not drawn) | -11.6%
48 | O=C(C1CCCO1)N(c1cccc(Cl)c1)C1C=CS(=O)(=O)C1 (stereo not drawn) | -1.98%
49 | CC(=O)c1ccc(N2CCN(c3ccccc3O)CC2)c([N+](=O)[O-])c1 | 8.34%
50 | Cc1ccc(C(=O)Nc2nc3ccccc3s2)s1 | 8.75%
51 | COC(=O)c1ccccc1NC(=O)c1ccccc1NS(C)(=O)=O | -32.1%
52 | COC(=O)c1ccc(COC(=O)c2cnc(Cl)c(Cl)c2)cc1 | 11.7%
53 | CCn1ccnc1CNC(=O)c1cc(COc2ccc(F)cc2F)on1 | 1.1%
54 | COCCNc1nc2nonc2nc1N(C)Cc1ccc(C)cc1 | -12.9%
55 | CC1=CC2=NC(=O)/C(=C\c3cccn3CCOc3ccc(C)c(C)c3)C(=N)N2O1 | -14.5%
56 | CCc1[nH]nc(C(=O)N2CCCC(Nc3cccc(F)c3)C2)c1C (stereo not drawn) | 16%
57 | Cc1nc(SCC(=O)Nn2c(-c3ccccc3)nc3ccccc3c2=O)n[nH]1 | -2.34%
